According to the supplement of paper PMC10126150:
Values marked as one replicate rest on one cluster of the flow cell; about a third of the high ones do not repeat.

Test system: ATP
Test: switch fluorescence ratio, 500 uM ATP over buffer (Cy3 cluster intensity, sum of 5 cycles each) (fold (ratio)); higher = stronger signal-on switching upon ATP binding; sequences stand for … in TCGTCGGCAGCGTCAGATGTGTATAAGAGACAGTTTTTTTTTTTTTTTTTTTTTTTTT…TC
Conditions: aptamer strand: ATP DNA aptamer (quencher-CACCTGGGGGAGTATTGCGGAGGAAGG + anchor), 100 nM annealed; ATP concentration: 500 uM; one replicate
Summary of the method: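 For every switch-domain sequence, the fluorescence ratio is the mean of per-cluster values, each being summed target-cycle Cy3 intensity over summed buffer-cycle Cy3 intensity. Clusters outside 100-1000 RFU were excluded. On a modified Illumina MiSeq flow-cell, the Cy3-labelled switching-strand clusters were annealed to 100 nM quencher-labelled ATP aptamer, imaged in selection buffer and then after 15 min with 500 uM ATP at 22 °C. Five such cycles were run, with NaOH stripping and re-annealing between them.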
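Note: ATP exposure 15 min at 22 °C before imaging.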

Sequence	switch fluorescence ratio
ACTTATAGC	1.01
GCAGCAAAGA	1.08
CGCAGAAGTC	1.13
AAAAACTCG	1.1
TCTCTGATTC	1.03
AATCAGGATG	0.985
TCCATCTATG	1.02
AAAACCCCGC	1.4
AATCGAACCC	1.03
GTTCAATAAC	1.06
GGCAATTCCA	1.03
GACACATTTC	1.1
ATTCATGCAT	1.02
TAACTTCGAA	0.988
TAGCAAGTCG	1.03
TTCAGTGCTA	1.03
CAGCTTCGGC	0.959
ATCTGTGAGT	0.972
TCCATCACTG	1.02
TTTCAGATGT	0.975
CTGTTTCTGC	1.02
GCGAACGCTT	1.12

Sequence	switch fluorescence ratio
GTCGTTGAAA	0.997
AAAGTCGCGG	0.997
GATGGTTTCT	0.968
ACATAGGAGG	1.04
CGACTGTCTC	1.07
CAGAGTCCGG	1.04
CTAGGTAACA	0.964
TCCCTCTATT	1.02
TCTCTAGGGA	1.01
TAGGTTCCTC	1.06
GAATCGACC	1.15
ATCGGGACGC	0.918
CTCTAGCACT	1.83
ATACGGGGGC	0.983
GGTGCTGCAA	1.25
GGAGTAGTCT	1.09
GAAATGCAGC	1.03
GGCCGCGGAT	1.08
AGATACAACC	1.12
ACGATTTCCA	1.01
AGTCTTAGTT	0.965
ATATTATCG	1.03

Sequence	switch fluorescence ratio
GTGTGGAGAG	1.01
CCGATTCAAA	1.95
TTGGAATAGG	0.991
ATAGATATGG	0.96
AACTACGCTG	1.35
GTGGTCAAGA	1.04
CATTTTGGCG	0.984
CAGAGGGAGT	0.953
GAATGACCAG	1.01
CGGTCCATTA	0.912
TGATGTATCT	1.02
CCGCCGTGCC	2.17
TTTTT	0.976
AGCGGCTGCC	0.983
TAAGGGCCTC	1.02
GTGGCTGGCG	0.924
TTATCGCGAG	0.969
TAAACAAGGA	1.01
CCGGGTTG	1.07
AGTTTGAGAG	1.02
GCTTTACTGA	1
CGCATTGCTA	1.62

Sequence	switch fluorescence ratio
GCTGCCCTTA	0.993
AGAGGGGTGG	0.954
CGTTCGTCGT	1.06
TAATGGTGGC	0.979
GCTCCAGAAG	1.08
AAAAGCTATC	0.937
ATTGCGGATT	1.03
ATGCCAGCAC	1.05
CTTTGTAAAT	0.992
TTAGAGTGTT	1.01
GGGTGGCCTT	1.05
ACGGGCAACT	1.11
CTGAGATAGA	1.01
CGATATACCA	1.18
TCTTCGACTA	1.05
GCGTGGTCCG	0.993
TGGTATCTTT	0.923
ATGCACGCCC	1.16
GGTCACGGGC	0.949
